These results are taken from ChEMBL document CHEMBL5606458, “ASAP - ZIKV NS2B-NS3 protease fluorescence single point” (2024).

A word on the inhibition: it is the drop in the measured response relative to a control, in per cent.

The experiment addresses Nonstructural protein 3 (Zika virus) (UniProt A0A024AXB9).
The mark [1] stands for this setting: PRVABC59, Concentration 15.0 uM, Number of replicates 1.0.
Where [2] appears, read: PRVABC59, Concentration 50.0 uM, Number of replicates 1.0.

In all, about 2,700 compounds went through this assay and about 160 (5.9%) showed an effect of 50% or more. The list shows a part of the results.

Sequence of UniProt A0A024AXB9 (A0A024AXB9 as listed by the source): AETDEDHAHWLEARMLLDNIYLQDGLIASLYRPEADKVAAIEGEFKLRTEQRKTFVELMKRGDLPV

For the compound `CCN1CCN(c2ccc(NC(=O)c3cc(Cl)ccc3NS(=O)(=O)c3ccc(Oc4ccccc4Cl)cc3)cc2)CC1`, the inhibition under setting [1] is 17.1%.
As for `COc1cc(Cc2cc(N)nc(C(F)(F)F)c2)nc(N2CCNCC2)n1`, the inhibition is, setting by setting: (PRVABC59, Concentration 49.5 uM, Number of replicates 2.0, Standard deviation 3.7983973094805132 %) 3.61%; (PRVABC59, Concentration 99.01 uM, Number of replicates 2.0, Standard deviation 3.6119960441516255 %) 6.33%; (PRVABC59, Concentration 198.0 uM, Number of replicates 2.0, Standard deviation 4.66573368035723 %) 11.4%.
On to `CC(C)Nc1nc2ccc(C(=O)Nc3nnc4cccnn34)cc2[nH]1`, for which the inhibition reads like this: (PRVABC59, Concentration 49.5 uM, Number of replicates 2.0, Standard deviation 0.9697827366255707 %) -0.393%; (PRVABC59, Concentration 99.01 uM, Number of replicates 2.0, Standard deviation 0.6935537034045963 %) 2.43%; (PRVABC59, Concentration 198.0 uM, Number of replicates 2.0, Standard deviation 2.0309794167135116 %) 7.61%.
With `Cc1nn(Cc2noc(-c3ccccc3)n2)cc1C1CCNCC1`, the inhibition came to 3.16% (PRVABC59, Concentration 49.5 uM, Number of replicates 2.0, Standard deviation 1.8564024497343552 %); 3.59% (PRVABC59, Concentration 99.01 uM, Number of replicates 2.0, Standard deviation 0.10461286127628412 %); 7.2% (PRVABC59, Concentration 198.0 uM, Number of replicates 2.0, Standard deviation 0.45839451920109286 %).
Consider `COc1cc(F)ccc1CNC(=O)c1cc(Cl)ccc1NS(=O)(=O)c1ccc(Oc2ccccc2Cl)cc1`, for which the inhibition under setting [1] is 28.6%.
For `O=Cc1ccc(N2CCC(C(=O)N[C@H]3CC(=O)N(Cc4ccccc4)C3)CC2)cc1`, the inhibition under setting [2] turned out to be 25.3%.
Turning to `Cc1ccc2[nH]cc(CCNC(=O)c3cc(Cl)ccc3NS(=O)(=O)c3ccc(Oc4ccccc4Cl)cc3)c2c1`, under setting [1], the inhibition was determined as 32.7%.
For the compound `O=Cc1ccc(N2CCC(C(=O)Nc3nnc(-c4ccncc4)s3)CC2)cc1`, the inhibition under setting [2] is 1.3%.
`O=C(Nc1ccc(O)cc1)c1cccc(OCc2c(Cl)cccc2Cl)c1`: the inhibition (PRVABC59, Concentration 49.5 uM, Number of replicates 2.0, Standard deviation 0.3020634287044847 %) is 8.92%; the inhibition (PRVABC59, Concentration 99.01 uM, Number of replicates 2.0, Standard deviation 0.4769425042937671 %) came out at 12.1%; the inhibition (PRVABC59, Concentration 198.0 uM, Number of replicates 2.0, Standard deviation 0.005961250253380851 %) came out at 17.1%.
For the compound `Cc1ccc(C(=O)NC[C@@H](O)CN2CCCC2)cc1OCCN`, the inhibition is 1.48% (PRVABC59, Concentration 49.5 uM, Number of replicates 2.0, Standard deviation 0.8034634963080326 %); 5.86% (PRVABC59, Concentration 99.01 uM, Number of replicates 2.0, Standard deviation 0.5019541300740721 %); 10.7% (PRVABC59, Concentration 198.0 uM, Number of replicates 2.0, Standard deviation 0.4278404142542113 %).
Regarding `O=C(Nc1cccc2ccc(O)cc12)c1cc(Cl)ccc1NS(=O)(=O)c1ccc(Oc2ccccc2Cl)cc1`, the inhibition under setting [1] was determined as 39.3%.
Consider `O=Cc1ccc(N2CCC(C(=O)Nc3ccc(Cl)c(Cl)c3F)CC2)cc1`, for which the inhibition under setting [2] was found to be 23.5%.
As to `O=Cc1ccc(N2CCC(C(=O)N3CCN(c4cccc([N+](=O)[O-])c4)CC3)CC2)cc1`, under setting [2], the inhibition was 20.3%.
In the case of `O=Cc1ccc(N2CCC(C(=O)Nc3ncccc3OCc3ccccc3)CC2)cc1`, the inhibition under setting [2] stood at 22%.
Take `O=Cc1ccc(N2CCC(C(=O)NCCCn3nccc3C3CC3)CC2)cc1`: the inhibition under setting [2] worked out at 25.6%.
On the same count and under the same terms, next, `C=CCN(C(=O)C1CCN(c2ccc(C=O)cc2)CC1)[C@H]1CCS(=O)(=O)C1`: 27.6%.
Turning to `Cc1nc([C@H]2CCCNC2)[nH]c1C(=O)N1CC[C@H](Oc2ccc(C(N)=O)cc2)C1`, the inhibition (PRVABC59, Concentration 49.5 uM, Number of replicates 2.0, Standard deviation 1.6901316572191802 %) was -1.6%; the inhibition (PRVABC59, Concentration 99.01 uM, Number of replicates 2.0, Standard deviation 1.3004168395860143 %) turned out to be 0.561%; the inhibition (PRVABC59, Concentration 198.0 uM, Number of replicates 2.0, Standard deviation 1.4460471613470702 %) stood at 2.32%.
As for `CN(C)Cc1ccc(CN(C)C(=O)c2cc(Cl)ccc2NS(=O)(=O)c2ccc(Oc3ccccc3Cl)cc2)cc1`, under setting [1], the inhibition came out at 5.74%.
Turning to `CN(Cc1cccc2cccnc12)C(=O)C1CCN(c2ccc(C=O)cc2)CC1`, the inhibition under setting [2] was 30.6%.
Turning to `Cc1nn(C[C@@H]2CC3(CC3)S(=O)(=O)N2)cc1C1CCNCC1`, the inhibition by setting is: (PRVABC59, Concentration 49.5 uM, Number of replicates 2.0, Standard deviation 1.0998701435927791 %) -1.87%; (PRVABC59, Concentration 99.01 uM, Number of replicates 2.0, Standard deviation 1.1827229663045253 %) -1.5%; (PRVABC59, Concentration 198.0 uM, Number of replicates 2.0, Standard deviation 1.3815696059428009 %) 0.267%.
As for `O=C(CNC(=O)c1cc(Cl)ccc1NS(=O)(=O)c1ccc(Oc2ccccc2Cl)cc1)c1ccc([N+](=O)[O-])cc1`, the inhibition under setting [1] stood at 33%.
With `c1cncc(CN2CC[C@H](c3c[nH]c4ccccc34)C2)c1`, the inhibition was 1.47% (PRVABC59, Concentration 49.5 uM, Number of replicates 2.0, Standard deviation 1.5559964247741371 %); 5.35% (PRVABC59, Concentration 99.01 uM, Number of replicates 2.0, Standard deviation 1.8994947363510455 %); 12.9% (PRVABC59, Concentration 198.0 uM, Number of replicates 2.0, Standard deviation 2.09431466608259 %).
For the compound `CC(C)(C)OC(=O)N[C@H](C(=O)Nc1cccc(C(N)=O)c1)c1ccc(OCc2ccccc2)cc1`, the inhibition was determined as 5.19% (PRVABC59, Concentration 49.5 uM, Number of replicates 2.0, Standard deviation 0.581616394206695 %); 6.98% (PRVABC59, Concentration 99.01 uM, Number of replicates 2.0, Standard deviation 2.3700535103819584 %); 5.29% (PRVABC59, Concentration 198.0 uM, Number of replicates 2.0, Standard deviation 2.011820976667005 %).
Regarding `Cc1[nH]nnc1CNC(=O)[C@]1(c2ccc(F)cc2)CCCNC1`, the inhibition reads like this: (PRVABC59, Concentration 49.5 uM, Number of replicates 2.0, Standard deviation 1.12958832901972 %) -0.326%; (PRVABC59, Concentration 99.01 uM, Number of replicates 2.0, Standard deviation 1.362760310389359 %) -0.319%; (PRVABC59, Concentration 198.0 uM, Number of replicates 2.0, Standard deviation 0.37566590325190835 %) -0.812%.
Turning to `CCN(CCOc1ccccc1C)C(=O)C1CCN(c2ccc(C=O)cc2)CC1`, the inhibition under setting [2] was found to be 25.1%.
Consider `O=C(Nc1ccc(I)cc1F)c1cc(Cl)ccc1NS(=O)(=O)c1ccc(Oc2ccccc2Cl)cc1`, for which the inhibition under setting [1] worked out at 67.5%.
For the compound `O=Cc1ccc(N2CCC(C(=O)Nc3ccc(N4CCOCC4=O)cc3)CC2)cc1`, the inhibition under setting [2] worked out at 15.6%.
Regarding `CC(C)(C)OC(=O)[C@H]1CCCN1C(=O)C1CCN(c2ccc(C=O)cc2)CC1`, the inhibition under setting [2] came to 22.1%.
Consider `COCCN(Cc1c(C)nn(C)c1C)C(=O)C1CCN(c2ccc(C=O)cc2)CC1`, for which, under setting [2], the inhibition worked out at 19.5%.
In the case of `C[C@@H](C(=O)c1cccc(Cl)c1)N(C(=O)c1cc(Cl)ccc1NS(=O)(=O)c1ccc(Oc2ccccc2Cl)cc1)C(C)(C)C`, the inhibition under setting [1] was found to be 14.5%.
Consider `NCc1cn(C2CCN(c3nc(-c4ccccc4)cs3)CC2)nn1`, for which the inhibition is, setting by setting: (PRVABC59, Concentration 49.5 uM, Number of replicates 2.0, Standard deviation 1.0691457653779137 %) 1.26%; (PRVABC59, Concentration 99.01 uM, Number of replicates 2.0, Standard deviation 0.02782164046422328 %) 5.38%; (PRVABC59, Concentration 198.0 uM, Number of replicates 2.0, Standard deviation 0.8227253647207844 %) 15.4%.
As to `Cc1cc(CO)c2cccc(Cc3ccccc3C(=O)N3CCC(C(=O)O)CC3)c2n1`, the inhibition runs as follows: (PRVABC59, Concentration 49.95 uM, Number of replicates 2.0, Standard deviation 1.0591789629357544 %) -4.89%; (PRVABC59, Concentration 99.9 uM, Number of replicates 2.0, Standard deviation 2.3071221964090083 %) -5.26%.
`COc1cc(CNC(=O)c2cc(Cl)ccc2NS(=O)(=O)c2ccc(Oc3ccccc3Cl)cc2)ccc1O`: the inhibition under setting [1] was 28.5%.
For `O=C(NC1CCN(C(=O)C2CC2)CC1)c1cc(Cl)ccc1NS(=O)(=O)c1ccc(Oc2ccccc2Cl)cc1`, the inhibition under setting [1] was determined as 6.15%.
`O=C(Nc1cc(C(F)(F)F)ccc1Cl)c1cc(Cl)ccc1NS(=O)(=O)c1ccc(Oc2ccccc2Cl)cc1`: the inhibition under setting [1] came out at 24.4%.
Regarding `O=Cc1ccc(N2CCC(C(=O)N(CCN3CCOCC3)Cc3ccco3)CC2)cc1`, under setting [2], the inhibition was found to be 18%.
For the compound `CNS(=O)(=O)NCCNC(=O)c1ccc(O)c(NC(=O)c2ccncc2F)c1C`, the inhibition was -4.03% (PRVABC59, Concentration 49.5 uM, Number of replicates 2.0, Standard deviation 2.056569128667992 %); -0.849% (PRVABC59, Concentration 99.01 uM, Number of replicates 2.0, Standard deviation 5.343274953075567 %); 3.9% (PRVABC59, Concentration 198.0 uM, Number of replicates 2.0, Standard deviation 0.6700231178809642 %).
Regarding `Cc1cc(O)c2cccc(Cl)c2n1`, the inhibition (PRVABC59, Concentration 99.9 uM, Number of replicates 2.0, Standard deviation 14.089623179297288 %) is -6.85%.
Regarding `CC(C)(C)N(Cc1ccsc1)C(=O)C1CCN(c2ccc(C=O)cc2)CC1`, the inhibition under setting [2] was 25.7%.
Take `Nc1ccc(-c2ccc3c(c2)B(O)OC3)cn1`: the inhibition (PRVABC59, Concentration 49.5 uM, Number of replicates 2.0, Standard deviation 1.6416065153888901 %) was -0.883%; the inhibition (PRVABC59, Concentration 99.01 uM, Number of replicates 2.0, Standard deviation 2.0812389013600248 %) was -1.95%; the inhibition (PRVABC59, Concentration 198.0 uM, Number of replicates 2.0, Standard deviation 1.5012983922906686 %) is -3.72%.
`CCc1noc2ncc(S(=O)(=O)N3CCCN(c4ncccc4C(N)=O)CC3)cc12`: the inhibition (PRVABC59, Concentration 49.5 uM, Number of replicates 2.0, Standard deviation 0.01391082023211164 %) is -0.993%; the inhibition (PRVABC59, Concentration 99.01 uM, Number of replicates 2.0, Standard deviation 1.1426743564998976 %) came to 0.077%; the inhibition (PRVABC59, Concentration 198.0 uM, Number of replicates 2.0, Standard deviation 2.187973087278847 %) was determined as 1.39%.
Take `O=Cc1ccc(N2CCC(C(=O)N3CCN(C(=O)[C@@H]4COc5ccccc5O4)CC3)CC2)cc1`: the inhibition under setting [2] amounted to 22.2%.
Take `O=Cc1ccc(N2CCC(C(=O)Nc3ccc(SC(F)(F)F)cc3)CC2)cc1`: the inhibition under setting [2] is 23%.
